Source: paper PMC12350170, “Structural basis for the synergistic assembly of the snRNA export complex” (Nature Structural & Molecular Biology, 2025)

Key:
Experiment in all cases: SEC; Superdex 200; preassembled CBC–ARS2 147–871–capped RNA complex incubated with CRM1, RanGTP and a PHAX construct; fractions on SDS-PAGE (7% gel to resolve CRM1 and ARS2)
Conditions in all cases: both partners purified
Human CRM1 = molecular target: T1, Human CRM1 (human, UniProt O14980)
T1 construct: CRM1 (XPO1), human; also called XPO1; exportin CRM1; source: E. coli Tg1, pQE60, purified (Ni2+-chelating Sepharose, heparin, Superdex 200)

[1] = molecular target: T2, Human nuclear cap-binding complex (CBC): CBP80ΔNLS with CBP20 (human, UniProt Q09161 20-790; P52298 1-156)
T2 construct: CBP80 (NCBP1), human, CBP80ΔNLS lacking the N-terminal 19 residues; CBP20 (NCBP2), human; also called CBP80–CBP20; source: CBP80ΔNLS in High Five insect cells, CBP20 in E. coli BL21Star (DE3); pellets lysed together, purified (Ni2+-chelating Sepharose, TEV, heparin, Superdex 200)
T2 sequence 1: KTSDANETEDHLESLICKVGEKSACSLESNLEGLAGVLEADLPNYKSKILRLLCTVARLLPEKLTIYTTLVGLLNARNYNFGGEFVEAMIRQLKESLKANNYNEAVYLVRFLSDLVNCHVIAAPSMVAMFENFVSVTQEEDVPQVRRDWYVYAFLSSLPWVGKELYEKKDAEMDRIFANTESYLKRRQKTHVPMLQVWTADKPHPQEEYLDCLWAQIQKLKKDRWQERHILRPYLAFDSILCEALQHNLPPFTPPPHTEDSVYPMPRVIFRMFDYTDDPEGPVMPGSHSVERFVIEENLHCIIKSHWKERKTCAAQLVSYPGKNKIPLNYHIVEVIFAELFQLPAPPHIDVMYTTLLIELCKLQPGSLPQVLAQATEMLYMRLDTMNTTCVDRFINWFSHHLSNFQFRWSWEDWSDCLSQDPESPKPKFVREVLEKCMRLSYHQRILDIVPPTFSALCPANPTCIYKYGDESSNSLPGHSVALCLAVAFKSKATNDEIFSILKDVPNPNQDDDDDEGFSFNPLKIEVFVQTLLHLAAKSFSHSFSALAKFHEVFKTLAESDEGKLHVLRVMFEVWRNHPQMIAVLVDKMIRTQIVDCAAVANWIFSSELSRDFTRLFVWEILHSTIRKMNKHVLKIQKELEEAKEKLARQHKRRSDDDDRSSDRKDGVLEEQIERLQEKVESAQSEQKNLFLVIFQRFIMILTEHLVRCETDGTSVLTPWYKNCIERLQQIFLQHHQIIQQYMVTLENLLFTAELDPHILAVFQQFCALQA
T2 sequence 2: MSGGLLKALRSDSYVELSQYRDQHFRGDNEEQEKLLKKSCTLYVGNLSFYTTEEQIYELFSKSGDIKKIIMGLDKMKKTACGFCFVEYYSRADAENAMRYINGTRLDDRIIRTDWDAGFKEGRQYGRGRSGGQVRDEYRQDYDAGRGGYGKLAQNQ

[2] = molecular target: Human Ran Q69L bound to GTP (human, UniProt P62826, Q69L)

Measured: binding result

B1: Human full-length PHAX E9R, phosphorylated by CK2 (natural protein)
chain: not shown
modifications: phosphorylated (CK2); positions not given
notes: PHAX, human, full length, E9R in the ARM motif (9-EDGQL-13); Expression of the mutant is not described separately; also called phosphorylated FL PHAX E9R; FL PHAX E9R; source: E. coli, purified; phosphorylated with CK2 (as FL PHAX)
binds: all assays above
